From PubChem BioAssay AID1508624 (National Center for Advancing Translational Sciences (NCATS), 2021)
About 120 (0.25%) of roughly 48,000 compounds were called active. Roughly 4% stayed inconclusive and do not appear here. Calls come from the whole dose curve; as a rule, active = well fitted activation curve with a large enough effect; inconclusive = small, poorly fitted or top-dose-only effect, or another doubt; inactive = no such curve, though single readings can be large or run the other way. The list shows a part of the results.

Assay: Primary qHTS for Identification of Small Molecule Activators of Huntingtin-Antisense Promoter Activity; note: nearly all actives have a fitted effect of over 55% in size
Conditions: HEK293 HTT-AS promoter firefly luciferase reporter, 24 h; series mostly up to 57.5 µM; activity change, positive = activation: at the top concentration
How it was run: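 Luminescence was read after Dual-Glo reagent and a 10 min room-temperature incubation. Values were normalized to vehicle (0% activity) and zero RLU (-100% activity). Reporter HEK293 cells had been exposed to compounds (up to 57.5 uM final) for 24 h.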

Activity change, positive = activation, inactive:
COc1cccc(C2CC(=O)Nc3c2c(=O)n(C)c2nc4ccccc4n32)c1 (stereo unspecified) -16.7%
CCOC(=O)c1c(C)[nH]c(C)c1S(=O)(=O)N(C)CC(=O)Nc1cccc(C(F)(F)F)c1 -26.7%
CCOC(=O)C1CCN(C(=O)Cn2ncc3c([nH]c4ccccc43)c2=O)CC1 -6%
CCC(C)N(C)C(=O)c1cc2ccccc2c(-c2ccccc2Cl)n1 (stereo unspecified) -18.6%
Cc1cccc(C(=O)Nc2nc(-c3nnn(-c4cc(C)ccc4C)c3C)ns2)c1 -80.1%
Cc1cc(C)cc(NC(=O)Cn2c(=O)n(Cc3ccc4c(c3)OCO4)c(=O)c3oc4ccccc4c32)c1 -4.65%
Cc1cccc(CNC(=O)Cn2ccc3cc(S(=O)(=O)N4CCC(C)CC4)ccc32)c1 -17%
COc1cc(OC)cc(C(=O)Nc2ccc3nc(N4CCC(C)CC4)cc(C)c3c2)c1 -35.1%
COc1cccc(C(=O)Nc2nnc(S(=O)(=O)N3CCOCC3)s2)c1 -12.9%
CCCCOc1cccc(C(=O)Nc2cccc3ccc(C)nc23)c1 -7.85%
Cc1ccc(CS(=O)(=O)Cc2ccc(C(=O)NCCc3ccc(Cl)cc3)o2)cc1 -11.7%
Cc1cc(C)c2c(=O)cc(C(=O)Nc3ccccc3Cl)oc2c1 14.6% [at 11.5 µM, percent change from vehicle, -100% = no light]
Cc1ccc2c(CC(=O)Nc3cc(C(F)(F)F)ccc3Cl)coc2c1C -5.21%
CCC12CN3CC(CC)(CN(C1)C3c1ccc(OCc3ccccc3)cc1)C2=O (stereo unspecified) 11.1%
O=S(=O)(O)NC1CCCCC1 -2.49%
CCOC(=O)c1c(C)[nH]c(C)c1S(=O)(=O)N1CCC(C(=O)Nc2ccccn2)CC1 -5.38%
Cc1ccc2oc(=O)n(CCNC(=O)Nc3ccccc3Cl)c2c1 -22.3%
COc1ccc(C2CC(=O)Nc3c2c(=O)nc2c(C)cccn32)cc1 (stereo unspecified) -13.2%
O=C(Cn1nnc2sc3c(c2c1=O)CCCC3)Nc1ccc(F)c(Cl)c1 -9.88%
COc1cccc(NC(CNS(=O)(=O)c2ccc(C)cc2)c2ccccc2)c1 (stereo unspecified) -22.2%
CCN1C(=O)c2ccccc2Sc2ccc(NC(=O)c3ccc(C)c(F)c3)cc21 -32.7%
Cc1cc(-c2ccc(C)c(S(=O)(=O)NCc3ccc(Cl)cc3)c2)on1 -23%
CCCS(=O)(=O)NCCc1csc2nc(-c3ccc(OC)cc3)nn12 -6.45%
Cc1ccccc1CNC(=O)CCCn1nc(C)c2sc3ccccc3c2c1=O -1.79%
COc1ccc(C2NC(=O)NC(C)=C2C(=O)Nc2cc(C)cc(C)c2)c(OC)c1 (stereo unspecified) -12%
CCc1c(C)nc2nncn2c1Nc1ccc(C)c(F)c1 -16.1%
COc1ccccc1N(CC(=O)NCCSCc1ccc(Cl)cc1)S(C)(=O)=O -2.24%
CN(Cc1ccccc1)c1ncnc2c1nc1n2CCCC1 -10.7%
COc1cccc(CNC(=O)c2c(O)nc3ccccn3c2=O)c1 -5.01%
CCOc1ccc(N2CC(c3nc4ccccc4n3CC(C)C)CC2=O)cc1 (stereo unspecified) -3.77%
COc1cc(-c2noc(-c3ccc(NCCc4ccccc4)c([N+](=O)[O-])c3)n2)cc(OC)c1OC 10.4%
COc1cc(NC(=O)CCNS(=O)(=O)c2ccc3c(c2)CCN3C(=O)C2CC2)cc(OC)c1 -5.45%
CC(C)NC[C@@H](O)COc1cccc2ccccc12 -11%
COCC(=O)N1CCc2cc(OC)c(OC)cc2C1COc1ccc2c(C)cc(=O)oc2c1 (stereo unspecified) 16.3%
Cc1ccc(C)c(N2CCN(C(=O)c3ccc4c(Cl)c5c(nc4c3)CCCC5)CC2)c1 -18.9%
O=c1oc2ccc(Br)cc2cc1-c1nc(-c2ccccc2)no1 -1.68%
CCS(=O)(=O)N1CC(=O)N(c2ccc(C)c(C)c2)C(C)(C(=O)NC2CCCCC2)C1 (stereo unspecified) -4.94%
CCC(C)NC(=O)C1CCC(CNS(=O)(=O)c2cccc3nsnc23)CC1 (stereo unspecified) -6.24% [at 11.5 µM, percent change from vehicle, -100% = no light]
CCc1ccc(-c2nc3c(c(SCc4ccc(F)cc4)n2)Cc2c(CO)cnc(C)c2O3)cc1 -13%
COc1ccc(N2CCN(C(c3ccccc3)c3nnc(-c4ccccc4Cl)o3)CC2)cc1 (stereo unspecified) -12%
Cc1cccc(NC(=O)CSc2nc3c(oc4ccccc43)c(=O)n2C(C)C)c1 -32%
CC1=C(C(=O)NCCc2ccc(Cl)cc2)C2(CCCCC2)OC1=O -4.28%
COc1cccc(CNC(=O)Cn2ncc3c4ccccc4n(C)c3c2=O)c1 -7.41%
COCCNC(=O)CCCn1c(SCC(=O)Nc2cccc(C)c2)nc2c(sc3ccccc32)c1=O -9.65%
COc1ccc(C(=O)c2oc3ccccc3c2NC(=O)COc2c(C)cc(C)cc2C)cc1 -2.92%
CCc1ccc(NC(=O)Cn2nnc(C(=O)NCc3ccco3)c2N)cc1 -0.732%
Cc1ccccc1C(=O)Nc1nnc(SCc2cc(=O)c3c(C)ccc(C)c3[nH]2)s1 -26.5%
CC1CCN(S(=O)(=O)c2cc(C(=O)NCc3ccc(F)cc3)n(C)c2)CC1 -31.5%
COc1cccc(COC(=O)c2ccc(-c3nnn(Cc4ccccc4)n3)cc2)c1 -9.86%
O=C1C(c2ccc(F)cc2)N(CCc2ccccc2)C(=O)CN1C1CCCCC1 (stereo unspecified) 0.0175%
CNC(=O)c1cc2n(n1)CCCN(Cc1ccc(F)cc1)C2=O -10.1%
COc1ccc(CN(C(=O)Nc2ccc(C)c(F)c2)C2CCN(C(C)=O)CC2)cc1 -7.35%
CCOc1ccc(CCNS(=O)(=O)c2c(C)nc3sc(C)cn3c2=O)cc1OCC -5.82%
CC(=O)c1ccc(NC(=O)CCc2c(C)nn(-c3ccc4nncn4n3)c2C)cc1 -15.9%
CSc1ccc(CCNC(=O)c2cc3n(n2)CCCN(Cc2ccc(C)cc2)C3=O)cc1 -13%
CCC1CN(C(=O)N2CCC(C(=O)NCCOC)CC2)c2ccccc2O1 (stereo unspecified) -4.03%
Cc1ccc(NC(=O)CCS(=O)(=O)c2ccc3nc(C)sc3c2)cc1 -16.1%
O=C(Nc1sc2c(c1C(=O)NCc1ccccc1)CCCC2)c1cc(=O)c2cc(Cl)ccc2o1 -7.03%
CCc1ccccc1N1CC(c2nc3ccccc3n2Cc2cccc(C)c2)CC1=O (stereo unspecified) -48.7%
N#Cc1ccccc1Cn1nnc2c(=O)[nH]c(C3CCCN(S(=O)(=O)c4ccc(F)cc4)C3)nc21 (stereo unspecified) -22.7%
CCOc1ccc(S(=O)(=O)NCCc2sc(-c3ccc(C)cc3)nc2C)cc1 -18.8%
